Measurements reported in PubChem BioAssay AID720709 (National Center for Advancing Translational Sciences (NCATS), 2013).
The campaign covered roughly 360,000 compounds. About 520 (0.14%) were called active. This list was built around the results that the source calls inconclusive (neither active nor inactive); the mix of calls is not that of the screen. Calls come from the whole dose curve; as a rule, active = well fitted inhibition curve with a large enough effect; inconclusive = small, poorly fitted or top-dose-only effect; inactive = no such curve, though single readings can be large or run the other way. Potencies of inconclusive entries are left out as doubtful fits.

target: Rap guanine nucleotide exchange factor 3 (Homo sapiens) (UniProt O95398); test: qHTS for Antagonist of cAMP-regulated guanine nucleotide exchange factor 3 (EPAC1): primary screen; settings: EPAC1 GEF assay, Rap1b-BODIPY-GDP exchange fluorescence; activity change, negative = inhibition: at 115 µM (top of the series); note: nearly all actives have a fitted effect of over 50% in size;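 for activity change, negative = inhibition: plate controls were vehicle for no effect and positive control for full effect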
Chain of UniProt O95398 (O95398 whole entry, looked up): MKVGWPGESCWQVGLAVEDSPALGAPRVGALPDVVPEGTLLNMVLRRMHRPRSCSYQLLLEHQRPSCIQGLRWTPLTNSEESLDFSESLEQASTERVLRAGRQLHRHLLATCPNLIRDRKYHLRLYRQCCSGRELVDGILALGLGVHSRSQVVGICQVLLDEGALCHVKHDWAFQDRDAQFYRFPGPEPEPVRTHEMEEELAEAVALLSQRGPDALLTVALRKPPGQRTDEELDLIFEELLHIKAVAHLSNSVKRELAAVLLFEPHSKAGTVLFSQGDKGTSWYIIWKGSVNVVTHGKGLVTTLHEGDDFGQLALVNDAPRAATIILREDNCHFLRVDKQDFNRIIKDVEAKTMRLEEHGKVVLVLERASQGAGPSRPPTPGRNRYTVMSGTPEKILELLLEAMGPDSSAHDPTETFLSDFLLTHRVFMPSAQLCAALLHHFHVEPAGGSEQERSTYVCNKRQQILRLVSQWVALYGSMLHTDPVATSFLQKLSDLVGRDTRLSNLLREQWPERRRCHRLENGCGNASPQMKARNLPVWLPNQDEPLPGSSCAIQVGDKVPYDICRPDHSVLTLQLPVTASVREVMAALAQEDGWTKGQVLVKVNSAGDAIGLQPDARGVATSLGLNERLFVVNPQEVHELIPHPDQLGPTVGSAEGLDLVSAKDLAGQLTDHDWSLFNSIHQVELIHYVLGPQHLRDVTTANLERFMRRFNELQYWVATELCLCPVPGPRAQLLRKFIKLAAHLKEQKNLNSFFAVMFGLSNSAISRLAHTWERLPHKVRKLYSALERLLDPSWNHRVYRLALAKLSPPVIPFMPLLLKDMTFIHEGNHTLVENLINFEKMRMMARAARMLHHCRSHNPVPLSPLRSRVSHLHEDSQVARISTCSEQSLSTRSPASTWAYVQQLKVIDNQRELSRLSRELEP
Potency is the fitted concentration of half-maximal effect; tags give direction and shape of the fitted curve.

| Structure (SMILES) | Potency | activity change, negative = inhibition |
| --- | --- | --- |
| COc1ccc(OCC(O)CNC(=O)c2ccccc2)cc1 (stereo not given) | inconclusive [inhibitor, partial curve] | – |
| Cn1nc(C(=O)NC2CCCCC2)c2c1-c1ccccc1S(=O)(=O)C2 | inconclusive [inhibitor, single point] | – |
| CC(C)CNC(=O)C(=O)Nc1ccc2c(c1)N(S(=O)(=O)c1cccs1)CCC2 | inconclusive [inhibitor, partial curve] | – |
| O=C(OCCN1C(=O)c2cccc3c(N4CCOCC4)ccc(c23)C1=O)c1ccccc1Cl | inconclusive [inhibitor, partial curve] | – |
| O=C1c2ccccc2C(Nc2ccc(S(=O)(=O)N3CCCCC3)cc2)N1c1ccccn1 (stereo not given) | inconclusive [inhibitor, partial curve] | – |
| NS(=O)(=O)c1cccc(NC(=O)COC(=O)C2(c3cccc(F)c3)CCCC2)c1 | inconclusive [inhibitor, full curve, poor fit] | – |
| C#CCOCCOCCOCCNc1nc(N2CCN(C(=O)CCCCCCCCCCNC(=O)Cn3cc(CCCCCN)nn3)CC2)nc(N2CCN(C(=O)CCCCCCCCCCNC(=O)[C@H](CO)n3cc(CCCSC)nn3)CC2)n1 | inconclusive [inhibitor, partial curve, poor fit] | – |
| Clc1ccccc1/C=C/c1nc(-c2cccnc2)no1 | – | inactive: 5.82% |
| CCOC(=O)C1Nc2ccc(OC(F)(F)F)cc2C2C=CCC12 (stereo not given) | inconclusive [inhibitor, partial curve] | – |
| Cc1nc2c3ccccc3n(CC(=O)c3ccc(F)cc3)c(=O)n2n1 | inconclusive [inhibitor, single point] | – |
| COc1cc(OC)cc(C(=O)NN(CCC#N)C2=NS(=O)(=O)c3ccccc32)c1 | inconclusive [inhibitor, partial curve] | – |
| O=C(CSc1nnc(Nc2ccccc2F)s1)NCc1ccco1 | inconclusive [inhibitor, partial curve, poor fit] | – |
| CC1CCN(S(=O)(=O)c2ccc(NC(=O)Cc3cccs3)cc2)CC1 | inconclusive [inhibitor, partial curve] | – |
| Cc1cc(OCC(F)(F)C(F)(F)C(F)(F)C(F)(F)C(F)(F)C(F)F)nc(N)n1 | inconclusive [inhibitor, single point] | – |
| Cc1ccc(-n2c(SCC(=O)Nc3cccc(S(N)(=O)=O)c3)nc3ccccc32)cc1 | inconclusive [inhibitor, partial curve, poor fit] | – |
